Measurements published in PubChem BioAssay AID463173 (ICCB-Longwood Screening Facility, Harvard Medical School, 2010).
The whole screen tested about 52,000 compounds, of which about 1,700 (3.3%) were called active. Cut-off read from the data, not from the text of the source: active = survival mostly below about 52% (no sharp cut-off); inactive = mostly above about 56%. Some of the results follow.

Each molecule was assayed on Wild type (assay: growth inhibition of S. aureus wild type versus tarO mutant, primary screen, teichoic acid synthesis inhibitors, RN4220, OD600 (AID 463173)). Conditions: S. aureus RN4220 wild type/DeltatarO growth, OD600, 18 h, hits give low values, screened at 18.75 µg/mL (by protocol).

| Structure (SMILES) | survival |
| --- | --- |
| CC1CCCN(S(=O)(=O)c2ccc(S(=O)(=O)N3CCN(C=O)CC3)cc2)C1 (centres undefined) | inactive: 102% |
| CCOc1ccc(C2C(=O)N(C3CCCCCC3)CC(=O)N2CCc2ccc(OC)c(OC)c2)cc1OC (centres undefined) | inactive: 72% |
| O=S(=O)(c1ccc2nc(NCc3ccccc3Cl)ccc2c1)N1CCCCC1 | inactive: 71% |
| COc1ccc(Nc2cc(C)c3ccccc3n2)cc1 | inactive: 116% |
| COc1cc(Cl)c(NS(=O)(=O)c2ccc(-c3cnc(C4CC4)o3)cc2)c(OC)c1 | inactive: 91% |
| CC(CNC(=O)c1ccc(CSc2nc3ccncc3n2Cc2ccccc2)cc1)c1ccccc1 (centres undefined) | inactive: 94% |
| CN(C)S(=O)(=O)c1ccc(S(=O)(=O)N2CCC(c3nc4c(nnn4Cc4cccc(F)c4)c(=O)[nH]3)CC2)cc1 | inactive: 113% |
| COc1ccc(CNC(=O)CSc2nc(-c3ccc(OC)c(OC)c3)cc(C(F)(F)F)n2)cc1 | inactive: 83% |
| CCOC(=O)c1ccc(NC(=O)NCCOCCn2c(=O)oc3ccccc32)cc1 | inactive: 80% |
| CCOC(=O)c1cc(S(=O)(=O)N2CCN(c3ccc(C(C)=O)cc3)CC2)[nH]n1 | inactive: 134% |
| CCS(=O)(=O)c1nc(S(=O)(=O)c2ccc(C)cc2)c(NCCCOC)s1 | inactive: 74% |
| Nc1cc(=O)nc(SCC(=O)Nc2ccc(F)cc2)n1CCc1ccccc1 | inactive: 79% |
| O=C(O)COCC(=O)Nc1ccc2c(c1)CCC2 | inactive: 117% |
| COc1ccc(N2CC(NC(=O)c3ccco3)CC2=O)cc1 (centres undefined) | inactive: 49% |
| Cc1cc2oc3c(c(=O)c2cc1C)C1(C(=O)N(C)c2ccccc21)N(CCO)C3=O (centres undefined) | inactive: 79% |
| CCn1c(CNC(=O)c2ccc(OC)cc2)nnc1SCC(=O)Nc1ccc(C)cc1 | inactive: 125% |
| CC(=O)c1ccc(NC(=O)c2ccc(-c3ccc(Cl)cc3)o2)cc1 | inactive: 141% |
| CCN(CC)CCNC(=O)c1ccc2nc(CCc3ccccc3)oc2c1 | inactive: 87% |
| O=C(Nc1ccccc1Br)C(Cc1ccccc1)NS(=O)(=O)c1cccc2nsnc12 (centres undefined) | inactive: 82% |
| COc1ccccc1NC(=O)C1CCN(C(=O)c2sc3nc[nH]c(=O)c3c2C)CC1 | inactive: 89% |
| COc1ccc(CNC(=O)Cn2ncc3c([nH]c4ccccc43)c2=O)cc1 | inactive: 63% |
| Cc1cccc(CCNC(=O)CCc2c(C)nc3c4c(C)cc(C)nc4nn3c2C)c1 | inactive: 81% |
| O=C1C(=O)N(CC2CCCO2)C(c2ccccc2)/C1=C(/O)c1ccccc1 (centres undefined) | inactive: 101% |

| Structure (SMILES) | survival |
| --- | --- |
| CCc1cccc(C)c1NC(=O)Cn1c(=O)cc(C)c2c(C)nn(-c3cccc(F)c3)c21 | inactive: 94% |
| Cc1nn(-c2ccc(N3CCCC3)nn2)c(C)c1CCC(=O)Nc1ccc(F)cc1F | inactive: 75% |
| CN1CCN(CCC(O)COc2ccc(OCC(O)CCN3CCN(C)CC3)cc2)CC1 (centres undefined) | inactive: 116% |
| Cc1c(C(=O)Nc2ccccc2F)sc2ncnc(N(C)C3CCCCC3)c12 | inactive: 32% |
| COc1ccccc1N1CCN(c2cc(C)nc3nc(-c4ccc(C)cc4)nn23)CC1 | inactive: 77% |
| O=C(NCc1ccc(F)cc1)c1ccc(Nc2nc3ccccc3n3nnnc23)cc1 | inactive: 87% |
| Cn1c(=O)n(-c2ccc3c(c2)OCO3)c2nc(-c3ccccc3)nc(C(N)=O)c21 | inactive: 83% |
| COc1ccc(NC(=O)c2sc3nc[nH]c(=O)c3c2C)cc1Cl | inactive: 71% |
| COc1ccc(C)cc1NC(=O)c1ccc2c(SCC(=O)O)c3c(nc2c1)CCCC3 | inactive: 73% |
| CCOc1ccc(NC(=O)C2CC(=O)N(c3ccc(C(C)C)cc3)C2)cc1 (centres undefined) | inactive: 73% |
| COc1cccc2c1cc1c(=O)n(CC(=O)N3CCN(c4cccc(C)c4)C(C)C3)nc(C)n12 (centres undefined) | inactive: 131% |
| Cc1cc(C)cc(NC(=O)CSc2cc(C)[nH]c(=O)n2)c1 | inactive: 72% |
| CCCC1=Nc2cc(C(=O)NC3CCCC3)ccc2Sc2ccc(C)cc21 | inactive: 48% |
| CCOC(=O)CC(NC(=O)Cn1nnc(-c2ccc(C(F)(F)F)cc2)n1)c1ccc(OC)cc1 (centres undefined) | inactive: 110% |
| COc1cc(CN(C(=O)COc2ccc(C)cc2)c2ccccn2)cc(OC)c1OC | inactive: 82% |
| CC(=O)Nc1ccc(-c2cc(C(=O)O)c3c(-c4ccccc4)[nH]nc3n2)cc1 | inactive: 63% |
| COc1ccc(C(=O)N2CCN(Cc3cc(=O)n4nc(-c5ccccc5C)sc4n3)CC2)cc1OC | inactive: 124% |
| CCCCNC(=O)c1nn(-c2ccc(CC)cc2)nc1CO | inactive: 84% |
| Cc1cccc(NC(=O)C2CCN(S(=O)(=O)c3ccc(F)cc3)CC2)c1C | inactive: 73% |
| CC(NC(=O)c1ccccc1NC(=O)c1ccccc1)C(=O)NCc1ccco1 (centres undefined) | inactive: 104% |
| CCc1ccccc1NC(=O)Cn1nnc(C(=O)NCc2ccccc2Cl)c1N | active: -3% |
| CCCn1c(=O)sc2cc(NC(=O)COc3ccc(Cl)cc3)ccc21 | inactive: 75% |
| CC1CCC(NC(=O)c2ccc3c(c2)N(Cc2cccc(Cl)c2)C(=O)c2ccccc2S3(=O)=O)CC1 (centres undefined) | inactive: 88% |

| Structure (SMILES) | survival |
| --- | --- |
| CN(C)S(=O)(=O)c1ccc2c(c1)C(=C(C#N)C#N)c1cc(S(=O)(=O)N(C)C)ccc1-2 | inactive: 108% |
| CCOC(=O)c1ccc(NS(=O)(=O)c2ccc3c(c2)n(C)c(=O)n3C)cc1 | inactive: 71% |
| CCN(CC)CC(C)CNC(=O)c1cc(-c2ccc(Br)s2)nc2ccccc12 (centres undefined) | inactive: 49% |
| COc1cccc(CN(C(=O)c2oc3cc(C)ccc3c2C)C2CCS(=O)(=O)C2)c1 (centres undefined) | inactive: 79% |
| CCN(CC)CCCNC(=O)CN1C(=O)CCn2nc(-c3cn(C)c4ccccc34)cc21 | inactive: 72% |
| COc1ccc(-c2nc3c4ccccc4n(CC(=O)N4CCN(c5ccccc5OC)CC4)c(=O)n3n2)cc1 | inactive: 85% |
| CCOC(=O)C1CCN(C(=O)c2ccccc2N(C)S(C)(=O)=O)CC1 | inactive: 108% |
| COc1cccc(-n2c(=O)c3c4c(sc3n(Cc3ccc(C)cc3)c2=O)CCCC4)c1 | inactive: 86% |
| Cc1ccc2nc(-c3ccccc3F)c(Nc3ccc(Cl)cc3)n2c1 | active: 11% |
| COc1ccc(-c2nc(CSCC(=O)N3CCN(c4cccc(C)c4C)CC3)c(C)o2)cc1OC | inactive: 22% |
| COc1ccc(CCNC(=O)c2ccc3c(c2)c(C)c(C)n3Cc2ccc(F)cc2)c(OC)c1OC | inactive: 73% |
| O=S(=O)(NCc1ccc(F)cc1)c1ccc(-c2cnc(C3CC3)o2)cc1 | inactive: 80% |
| Cc1nnc(NC(=O)CSCc2cc(=O)c3cc(Cl)ccc3[nH]2)s1 | inactive: 72% |
| Cc1c(C(=O)N2CCCC2)oc2c1-c1nn(CC(=O)NCCCOC(C)C)cc1CC2 | inactive: 93% |
| COc1cccc(C(=O)Nc2ccccc2C(=O)OCc2cc(=O)n3nc(C4CC4)sc3n2)c1 | inactive: 65% |
| O=C(O)CC(C(=O)O)c1cn(Cc2ccccc2)c2ccccc12 (centres undefined) | inactive: 105% |
| Cc1ccc(C(=O)c2cn(CC(=O)NC3CCCCC3)c3nc(C)ccc3c2=O)cc1 | inactive: 92% |
| COc1cc(-c2nc(Cn3nnc(C(=O)Nc4ccccc4)c3C)c(C)o2)cc(OC)c1OC | inactive: 54% |
| COc1ccccc1-n1ncc2c(=O)[nH]c(SCC(=O)Nc3ccc(Cl)cc3)nc21 | inactive: 66% |
| Cc1ccc(CNC(=O)c2cccn2-c2nnc(N3CCCCC3)s2)cc1 | inactive: 124% |
| Cc1c(C)c2c(cc(C)c3c(-c4ccccc4)coc32)oc1=O | inactive: 82% |
| O=C(NC1CC(=O)N(c2cccc(F)c2)C1)C1CCCC1 (centres undefined) | inactive: 66% |
| CN(C)CCN(Cc1ccccc1)S(=O)(=O)c1ccc2[nH]c(=O)ccc2c1 | inactive: 76% |

| Structure (SMILES) | survival |
| --- | --- |
| O=C(c1cccn1-c1nnc(N2CCCC2)s1)N1CCN(c2ccccc2)CC1 | inactive: 19% |
| O=C(Nc1cc2c(cc1C(=O)c1ccccc1)OCCO2)c1ccc(Br)cc1 | inactive: 86% |
| Cc1ccccc1-c1nc(SCC(=O)NCc2ccco2)c2c(=O)n(C)c(=O)n(C)c2n1 | inactive: 78% |
| COc1ccc2oc(=O)c(-c3csc(-c4ccc(Br)cc4)n3)cc2c1 | inactive: 80% |
| COc1cccc(-n2cc(C(=O)NCCc3ccc(C)cc3)c3ccccc3c2=O)c1 | inactive: 82% |
| COc1ccc(-c2csc3nc(-c4ccccc4C)oc(=O)c23)cc1OC | inactive: 76% |
| Cc1ccc(NC(=O)C2CCN(S(=O)(=O)c3c(C)noc3C)CC2)c(C)c1 | inactive: 94% |
| O=C(/C=C\c1ccc2c(c1)OCO2)NC1CC(=O)N(c2ccc(Cl)cc2)C1 (centres undefined) | inactive: 77% |
| COc1ccc(C2(Nc3cccc(C(=O)O)c3C)C(=O)c3ccccc3C2=O)cc1 | inactive: 74% |
| FC(c1nc2ccccc2[nH]1)C(F)(F)F (centres undefined) | inactive: 111% |
| CC(=O)N1CCOc2cc(S(=O)(=O)NCc3ccc(C)cc3)c(Cl)cc21 | inactive: 83% |
| O=C(O)CSC1=NCCN1 | inactive: 123% |
| CCSc1nc(-c2ccccc2OC)nc2c1Cc1c(CO)cnc(C)c1O2 | inactive: 89% |
| Nc1ccc(CN2C(=O)c3ccccc3C2=O)cc1 | inactive: 107% |
| CCOc1ccccc1NC(=O)c1cc(=O)c2ccc(C)cc2o1 | inactive: 84% |
| COc1ccc(NC(=O)CSc2oc(-c3cccs3)nc2S(=O)(=O)c2ccc(C)cc2)c(OC)c1 | inactive: 68% |
| O=C(Cc1cccs1)NC1CC(=O)N(c2cccc(F)c2)C1 (centres undefined) | inactive: 78% |
| COc1cc2nc(NCCC(C)C)n3nc(-c4ccccc4)nc3c2cc1OC | inactive: 69% |
| CCCCS(=O)(=O)c1oc(-c2cccs2)nc1S(=O)(=O)c1ccccc1 | active: 0% |
| Cc1cc(C)n2c(Nc3ccc(Cl)cc3)c(-c3ccsc3)nc2n1 | inactive: 117% |
